{"source": "paper PMC6555833", "about": "“APC/C^CDH1 synchronizes ribose-5-phosphate levels and DNA synthesis to cell cycle progression” (Nature Communications, 2019)", "key": {"[1]": {"biological_target": "purified recombinant TKTL1 (human) (UniProt P51854)", "experiment": "SEC; Superdex 200 in cold PBS (4 °C), 0.4 mL/min; fractions analysed by western blot; markers MSH6 (152 kDa) and BSA (66 kDa); heterodimer purified beforehand by nickel resin then FLAG beads; both purified"}, "[2]": {"biological_target": "purified recombinant TKTL1 (human) (UniProt P51854)", "experiment": "native gel or EMSA; native gel electrophoresis of TKT, TKTL1-TKT and TKTL1; both purified"}}, "note": "These are yes or no findings as the source states them, for the method shown.", "data": [{"binder": "purified recombinant TKTL1 (natural protein, human, UniProt P51854 1-596, looked up, wild-type transketolase-like protein 1 (TKTL1), human; in vector pSJ3; also called TKTL1 monomer; source: E. coli BL21 (DE3)pLysS, purified (nickel column)) MADAEARAEFPEEARPDRGTLQVLQDMASRLRIHSIRATCSTSSGHPTSCSSSSEIMSVLFFYIMRYKQSDPENPDNDRFVLAKRLSFVDVATGWLGQGLGVACGMAYTGKYFDRASYRVFCLMSDGESSEGSVWEAMAFASYYSLDNLVAIFDVNRLGHSGALPAEHCINIYQRRCEAFGWNTYVVDGRDVEALCQVFWQASQVKHKPTAVVAKTFKGRGTPSIEDAESWHAKPMPRERADAIIKLIESQIQTSRNLDPQPPIEDSPEVNITDVRMTSPPDYRVGDKIATRKACGLALAKLGYANNRVVVLDGDTRYSTFSEIFNKEYPERFIECFMAEQNMVSVALGCASRGRTIAFASTFAAFLTRAFDHIRIGGLAESNINIIGSHCGVSVGDDGASQMALEDIAMFRTIPKCTIFYPTDAVSTEHAVALAANAKGMCFIRTTRPETMVIYTPQERFEIGQAKVLRHCVSDKVTVIGAGITVYEALAAADELSKQDIFIRVIDLFTIKPLDVATIVSSAKATEGRIITVEDHYPQGGIGEAVCAAVSMDPDIQVHSLAVSGVPQSGKSEELLDMYGISARHIIVAVKCMLLN", "values": [{"measurement": "binding", "setting": "[1]", "result": "no binding"}, {"measurement": "binding", "setting": "[2]", "result": "no binding"}]}]}
